Read counts are not given, so values of variants with three or more changes are uncertain.
B1: LINE1-mini (parent)
chain: GGCAGAGCUCAACACAGCGUGGCAAAGUGGCUGUGGCUAGACUGCC

Variants of: B1
Assay: self-cleavage, relative activity (ratio to wild type); higher = more cleavage; in vitro, sequencing; the parent is a self-cleaving ribozyme

Variant | self-cleavage
A12G C13U C31A U32C U38A C45U | 0
C3A A4C C8A G40A | 0.24
U28G G30C A41U | 0.6
C8U C18U C31U | 0.07
A12U U32A U43A | 0
C13A G17U C42A | 0.37
G1U G2C U9A C10G | 0
C15U G29A U32G | 0.23
G1U A4G G7U C23G | 0.11
G19U A25C G27U C37A | 0.01
A26U G36C G40A | 0.04
A12G A24G U38A A41U | 0.12
C15A A24U U34C A39G G40C | 0.02
A6G U20G A39C | 0
G30U C42U U43G G44C | 0.01
C8A C10A C15A U28C A41G | 0.04
G7A C8U C15U U20G C23G C42A | 0.02
C8G A16G U34G | 0.07
A4G A12U C23U | 0.05
A16C G19U U20C C37G A41U C46G | 0
A4G G7C A11G C13A G19C G21C U28C A41C | 0.02
U9G C13A A14U U43A | 0.01
C18A G30C G36A | 0.02
U38A U43G C45A | 0

Variant | self-cleavage
C18U U28G G29A | 0.77
C10G A25U A39U U43A | 0
A4C G7U C42U C46A | 0.05
C18U G21U C31G | 0.08
G1A A11G C37U | 0.01
C10U A16C G21U G36U | 0.02
C13U C23A U34C | 0.05
G5A G7A A14C A16C | 0.14
A4C G21A G22A U43A | 0.5
U9C A11U G33U C42G | 0.01
A6G A14U U28G | 0.01
G1C U28G G36U | 0.06
A11G A25U G29U G40U | 0.03
G1U G5C U20A C23U | 0.02
A25U G29C G33U C46U | 0.33
G1C A4G G7C A16C C45A | 0.06
C15G A25U G40U | 0.02
C13U G27U C31U C46U | 0.05
A12U G35A G44A | 0.06
C18G U20A A25G A39C | 0.17
G5U A6G C8G G27U | 0.03
A6U A16G G22U | 0.31
G7U C18A A41G C42G | 0.41
G1A A16G C31G A39G C46G | 0.01

Variant | self-cleavage
C3U A12U C23G U43A G44C | 0.09
G5U U9C G22U G27A | 0.01
G30C G33C C46A | 0.04
A12C U20G G40A | 0.04
C8A G19C U20A | 0.08
C13A A24U G36A A41C | 0.02
C18U A25C U38G G44A | 0.01
G1U C15U A26U G35C | 0.07
A12U U20A A39C | 0.02
G5U A12U A26U C37U C46A | 0.02
G2U A12U A14G G21C A26U | 0.01
A11C A12G G21C U28A U38C A39U | 0
C8U U32A U34A G44C | 0.03
A4C A25U C37G | 0.09
G1U G17U C18G | 0.11
G1A G5A G7U C37U | 1.15
A14U C23A A24U | 0.17
C8A C13A G19U U20C | 0.5
G17U G33A A39C C42U | 0.13
G2U C3G C15A A16C G17U G27A G29C C42A | 0.12
A4U U28G U32A G40U | 0.06
U9G C18A G33U U34A | 0.04
G7U G22C C42A | 0.2
G27C A41G G44A | 0.04

Variant | self-cleavage
G1A G2A C8G C10A U20C G40A | 0.01
A6U C13G G36U | 0.24
C3G C10A G33A U34C | 0.07
C15A U32G C46U | 0.03
G21A G40C G44A C46G | 0.05
C10A C15A G17C G21U | 0.04
C3G C18G C45G C46G | 0.06
A14G C15U A25G U38G | 0.05
A16U G17C G30A C37G G40U C45U | 0.02
G33C G40U C42U | 0.03
A11G G21U C37U A39U C45A | 0.01
C15A G30A C31G A41U | 0
A6C A14U G35U | 0.23
G5C C13U G21U | 0.02
C23U U28G C31U U38G G40U | 0.03
C8G C10G C13A G22A | 0.03
G2C C13A C15A A25C G27A | 0.05
G2U A16U G44A C46A | 0.01
G2U U9G A25G | 0.07
A14C G17U U38A | 0.04
A16U A24U C42U | 0.03
G2A G19A G29U | 1.41
G5A G17U U20G | 0.09
C3A G21A C23A A25C C31G | 0.08

Variant | self-cleavage
G7U A16G G36A | 0.25
G30A U34C C42U | 0.05
G2U A4C C10A U28G G29C | 0.02
G1U A4C U34C | 0.04
G5U A11U C31A G33U U38C C46A | 0
G2U A4U C8A A14U G29U G30U A41G G44U | 0.19
G29U G35C C37G | 0.03
G2U C15U G19C G30A G44C | 0.05
C15U G17U C18U A39U | 0.04
U28G G33U U38C | 0.02
G17A G29U U38A | 0.03
A4U U32A U38G | 0.02
G2C C10A U20A G22A | 0.01
G5C G35A G40A C42U | 0.01
G1A U9A G17C C18U | 0.15
C3U U20C G35C C42A | 0.04
C18U G19U C37U | 0.04
C13G C18A U38G A39G | 0.02
A6G G17C G40U | 0.05
C13G A24G G35C G44U | 0.49
U9C A12G A16G G17U C31U | 0.01
G7A C15G G17C C18A G35C | 0.06
G7A U9A G33A G35U C45G | 0.13
C31U A39C C42U | 0.02

Variant | self-cleavage
A6U C10A G27A U38G A41C | 0
G2C C13A U20A G36C | 0.2
A11U C13A C15G C37A | 0.01
U9G A12U G36A | 0.03
G7U C13A G22U C23G G30C | 0.1
A11U C13U A14U C23G G29A C37U | 0.01
G2C G36U C37A | 0.13
A12G G27U C42A | 0.01
C13U U20G G33U U43A | 0
A12C G17A G19U | 0.01
C8A A14C G36C C46A | 0.05
G2A C8G U9A G44U | 0.06
C3A A11C A14C U20G G40C G44A | 0.01
C8U U38G C42A | 0
G1A G33C G40U A41C U43C | 0.04
C13U G30U U32G | 0.07
A6C A16G G17U G27A G29A U32A G36A | 0.18
A12G G21U G30U | 0.03
C3U A25U U28G | 0.14
C8U C10A A11C U28G | 0.02
C13A G21U C42U | 0.18
G17U C23U A25C A26C C42U | 0.05
A6U C8U G29C G35U | 0.03
C8U C18A A24U C42A | 0.13

Variant | self-cleavage
C15A G17A A26C U28A U38A | 0
G7A A16G A24G | 0.16
A4G U9A C42U | 0.18
A6G C15U C46U | 0.15
A16C C18G G40C | 0.04
G17A G22C G35U C45A | 0.02
G1C G7U U20A G22C A26C C46U | 0.02
G2U C15G C23A C37A | 0.01
G2A G17C U32A G33A | 0.12
C10A C15U G27A C42G | 0.02
U34C A39U G40A | 0.06
G2U A26C U32G U34A G35C U43C | 0
A26U G30C C45G | 0.12
A6C A25G G27U | 0.18
G5U C10A C13A A14G | 0.03
G1A A6G C10G U32C G35U | 0
G22U G29A G36C G40U | 0.09
C3U G5A A14U U20C G29C C31G G40A | 0.05
A12G C15A G17C U38G | 0
G22C C37G C45A | 0.04
G5A A26C G29A G30A G33A G36C U38A | 0.02
A4G A12G A14G A25U G36C | 0.01
A6U C13U C18U C23A | 0.16

— the RNAGym collection of RNA variant scans (doi:10.7554/elife.90254)
